# Experimental data published in PubChem BioAssay (NCATS).
# Where “and” joins values, the source holds several entries; their conditions need not be identical. Equal values may be shown once. Inconclusive results, whose numbers are uncertain, are shown with a selection of clear calls. Potencies beside an inconclusive call are fits to weak or partial responses and may not hold up. Calls of active or inactive are those of the source. Calls follow the shape of the dose curve; as a rule, active = well fitted inhibition curve with a large enough effect; inconclusive = small, poorly fitted or top-dose-only effect; inactive = flat fitted curve, though single readings scatter.
# Tested on: NIH3T3
# Test: Cytotoxic Profiling of Annotated Libraries Using Quantitative High-Throughput Screening (AID 1296008); also: nearly all actives have a fitted effect of over 60% in size
# Conditions: Five cell lines viability, CellTiter-Glo ATP luminescence, 48-72 h; max response: stronger effect = lower value
# From the text: Cell-based phenotypic screening is a commonly used approach to discover biological pathways, novel drug targets, chemical probes and high-quality hit-to-lead molecules. Many hits identified from high-throughput screening campaign are ruled out through a series of follow-up potency, selectivity/specificity, and cytotoxicity assays. Prioritization of molecules with little or no cytotoxicity for a more in-depth downstream evaluation influence the future direction of projects, so cytotoxicity profiling of the screening libraries at early stage is essential for increasing the likelihood of candidate success. […] For the annotated library, we also examined the primary targets and mechanistic pathways regularly associated with cell death. To our knowledge, this is the first study to use high-throughput screening to profile large libraries for cytotoxicity assessment in both normal and cancer cell lines. In summary, the results generated here constitutes a valuable resource for the scientific community and provides insight on identifying cytotoxic compounds with particular mechanisms of action, and prioritizing compounds with suitable cytotoxicity profile for further evaluation.
# A pintool (Kalypsys) was used to transfer 23 nL of compound solution to the 1536-well assay plates. After 48 or 72 hr incubation at 37 degree Celsius, 5% CO2 and 95% humidity, 2.5 uL of CellTiter-Glo (Promega) was dispensed into each well using a dispenser (Aspect Automation, St. Paul, MN) with solenoid valves (Lee Valves, Westbrook CT). Plates were left at room temperature for 10 min before imaging the ATP-coupled luminescence using a ViewLux microplate imager (PerkinElmer, Waltham, MA).
# % is scaled to controls: 0 for no effect and ±100 for the full control effect; potency is read from the fitted curve at half-maximal effect; tags tell the direction and shape of the fitted curve.
Structure (SMILES),Potency,max response,outcome
O=C(O)c1ccc2c(c1)nc(Nc1cccc(Cl)c1)c1ccncc12,"inconclusive: 20.6 µM [inhibitor, single point]",,
C[C@]1(CO)CN(c2cc(C(=O)Nc3ccc4c(c3)-c3c(c(C(N)=O)nn3-c3ccc(F)cc3)CC4)c(Cl)cn2)C[C@@]1(C)CO,"inconclusive: 23.5 µM [inhibitor, single point]",,
COc1ccc(C(C)=O)c(O)c1,,inactive: 2.86%,
NCC(=O)Nc1ccc(-n2nc(C(F)(F)F)cc2-c2ccc3c(ccc4ccccc43)c2)cc1,"inconclusive: 23.1 µM [inhibitor, single point]",,
O=C1CSC(=O)N1C(CCc1ccncc1)COc1ccc(-c2cccc([N+](=O)[O-])c2)cc1 (stereo not given),,inactive: -3.92%,
Cc1[nH]nc2ccc(-c3cncc(OC[C@@H](N)Cc4ccccc4)c3)cc12,active: 3.72 µM and active: 7.31 µM,,
CCCCCCCc1ccc(CCc2cccc(O)c2C(=O)O)cc1,"inconclusive: 18.7 µM [inhibitor, partial curve]",,
CN(C)c1nc(Cc2ccc(NC(=O)c3ccc(C(F)(F)F)cc3)cc2)nc(N(C)C)c1CC(=O)O,,inactive: -4.49% and inactive: 4.34%,
C[C@@H]1CC(=O)NN=C1c1ccc(NN=C(C#N)C#N)cc1,"inconclusive: 21.1 µM [inhibitor, single point]",,
CN(CC(=O)N(Cc1ccc(C2CCCCC2)cc1)c1ccc(C(=O)O)c(O)c1)S(=O)(=O)c1c(F)c(F)c(F)c(F)c1F,,,inactive
CCC(=C(c1ccc(O)cc1)c1ccc(OCCNC)cc1)c1ccccc1,"inconclusive: 37.2 µM [inhibitor, single point]",,
CC(=O)c1c(C)c2cnc(Nc3ccc(N4CCNCC4)cn3)nc2n(C2CCCC2)c1=O,"inconclusive: 3.32 µM [inhibitor, full curve]",,
CC1(C)CC(=O)c2c(C(F)(F)F)nn(-c3ccc(C(N)=O)c(NC4CCC(O)CC4)c3)c2C1 (stereo not given),active: 235 nM and active: 184 nM,,
N#CC(=C(N)Sc1ccc(N)cc1)c1ccccc1C(F)(F)F,"inconclusive: 13.2 µM [inhibitor, partial curve]",,
CN1c2ccccc2C(=O)N2CCc3c([nH]c4ccccc34)C21 (stereo not given),"inconclusive: 5.17 µM [inhibitor, partial curve]",,
COc1cc(Nc2ncc3c(n2)-c2ccc(Cl)cc2C(c2c(F)cccc2OC)=NC3)ccc1C(=O)O,"active: 7.43 µM and inconclusive: 11.6 µM [inhibitor, partial curve, poor fit]",,
COCCCOc1ccnc(CS(=O)c2nc3ccccc3[nH]2)c1C (stereo not given),,inactive: -12.1% and inactive: 2.17%,inactive
NS(=O)(=O)c1cc(Cl)c(Cl)c(S(N)(=O)=O)c1,,inactive: -19% and inactive: 0.0909%,
Nc1ncn([C@H]2C[C@H](O)[C@@H](CO)O2)c(=O)n1,"inconclusive: 13.2 µM [inhibitor, partial curve]",,

Structure (SMILES),Potency,max response,outcome
O=c1ncn2nc(Sc3ccc(F)cc3F)ccc2c1-c1c(Cl)cccc1Cl,"inconclusive: 26.4 µM [inhibitor, single point]",,
COc1ccc(CCN2CCN(CCCc3ccccc3)CC2)cc1OC,,inactive: 1.46%,inactive
NC(=O)Nc1cc(-c2cccc(F)c2)sc1C(=O)N[C@H]1CCCNC1,active: 418 nM and active: 291 nM,,
CC[C@H](CC#N)OC(=O)N[C@@H](C)c1cccc(NC(=O)Nc2ccc(-c3cnco3)c(OC)c2)c1,active: 1.18 µM and active: 1.3 µM,,
NCCCC(N)(C(=O)O)C(F)F (stereo not given),"inconclusive: 33.5 µM [inhibitor, single point]",,
O=C(CN1C(=O)C2(CCCC2)NC[C@H]1c1cc(F)cc(F)c1)Nc1ccc2c(c1)C[C@@]1(C2)C(=O)Nc2ncccc21,,inactive: -4.62%,
CC(C)(Oc1ccc(C2CC2(Cl)Cl)cc1)C(=O)O (stereo not given),"inconclusive: 48.1 µM [inhibitor, single point]",,
Nc1nc(F)nc2c1ncn2[C@@H]1O[C@H](CO)[C@@H](O)[C@@H]1O,"inconclusive: 33.5 µM [inhibitor, single point] and inconclusive: 29.1 µM [inhibitor, single point]",,
CC(=O)O[C@@]12CO[C@H]1C[C@H](O)[C@@]1(C)C(=O)[C@H](O)C3=C(C)[C@@H](OC(=O)C(O)[C@@H](NC(=O)OC(C)(C)C)c4ccccc4)C[C@@](O)([C@@H](OC(=O)c4ccccc4)[C@@H]21)C3(C)C (stereo not given in full),,inactive: -88.1%,
Cc1cccc(Nc2nc(N[C@@H]3CCCC[C@H]3N)ncc2C(N)=O)c1,"inconclusive: 33.2 µM [inhibitor, single point]",,
COc1cc2c(cc1OC)[C@@H]1C(=O)c3ccc4c(c3O[C@@H]1CO2)C=CC(C)(C)O4,"inconclusive: 9.35 µM [inhibitor, partial curve, poor fit]",,
CS(=O)(=O)Oc1ccc2c(NC(N)=O)c(C(=O)c3ccc(Cl)cc3Cl)oc2c1,,inactive: -0.156%,
CC[C@]1(O)C[C@H]2CN(CCC3=c4ccccc4=N[C]3[C@@](C(=O)OC)(c3cc4c(cc3OC)N(C)[C@H]3[C@@](O)(C(N)=O)[C@H](O)[C@]5(CC)C=CCN6CC[C@]43[C@@H]65)C2)C1,"inconclusive: 0.0935 µM [inhibitor, full curve]",,
COc1cc(C=CC(=O)O)ccc1O,,,inactive
CCCOc1ccc(C(=O)OCCN(CC)CC)cc1N,,,inactive
CCc1nc(-c2cccc(C)c2)c(-c2ccnc(NC(=O)c3ccccc3)c2)s1,"inconclusive: 20.9 µM [inhibitor, single point] and inconclusive: 18.4 µM [inhibitor, single point]",,
O=C(CC12CC3CC(CC(C3)C1)C2)Nc1cccc2nc(NCCNCCO)ccc12,,inconclusive: -30.3% [inhibitor],inactive
CC(=O)NCCC(=O)N[C@@H](CCC(N)=O)C(=O)N[C@@H](CO)C(=O)N[C@@H](CCC(N)=O)C(=O)N[C@@H](CCC(N)=O)C(=O)N[C@H](C(=O)N[C@@H](Cc1ccccc1)C(=O)N[C@]1(C)CCCCCCC=CCCC[C@@](C)(C(=O)N[C@@H](CCC(N)=O)C(=O)N[C@@H](CC(N)=O)C(N)=O)NC(=O)[C@H](CC(C)C)NC(=O)[C@H](CC(C)C)NC(=O)[C@@H](CCCNC(=N)N)NC(=O)[C@H](Cc2c[nH]c3ccccc23)NC(=O)[C@H](CC(C)C)NC(=O)[C@H](CC(N)=O)NC1=O)[C@H](C)O,,inactive: 0.272%,
